Measured values published in PubChem BioAssay AID887 (National Center for Advancing Translational Sciences (NCATS), 2007).
Out of some 74,000 compounds screened, about 1,100 (1.5%) were called active. Inconclusive results, whose numbers are uncertain, are shown with a selection of clear calls. Calls come from the whole dose curve; as a rule, active = well fitted inhibition curve with a large enough effect; inconclusive = small, poorly fitted or top-dose-only effect; inactive = no such curve, though single readings can be large or run the other way. No potency is given beside an inconclusive call; the fits are too rough.

target: Polyunsaturated fatty acid lipoxygenase ALOX15 (Homo sapiens) (UniProt P16050); assay: qHTS Assay for Inhibitors of 15-hLO (15-human lipoxygenase); settings: purified 15hLO-1, xylenol orange hydroperoxide absorbance; series mostly up to 57.1 µM; note: nearly all actives have a fitted effect of over 55% in size
Chain of UniProt P16050 (P16050 whole entry, looked up): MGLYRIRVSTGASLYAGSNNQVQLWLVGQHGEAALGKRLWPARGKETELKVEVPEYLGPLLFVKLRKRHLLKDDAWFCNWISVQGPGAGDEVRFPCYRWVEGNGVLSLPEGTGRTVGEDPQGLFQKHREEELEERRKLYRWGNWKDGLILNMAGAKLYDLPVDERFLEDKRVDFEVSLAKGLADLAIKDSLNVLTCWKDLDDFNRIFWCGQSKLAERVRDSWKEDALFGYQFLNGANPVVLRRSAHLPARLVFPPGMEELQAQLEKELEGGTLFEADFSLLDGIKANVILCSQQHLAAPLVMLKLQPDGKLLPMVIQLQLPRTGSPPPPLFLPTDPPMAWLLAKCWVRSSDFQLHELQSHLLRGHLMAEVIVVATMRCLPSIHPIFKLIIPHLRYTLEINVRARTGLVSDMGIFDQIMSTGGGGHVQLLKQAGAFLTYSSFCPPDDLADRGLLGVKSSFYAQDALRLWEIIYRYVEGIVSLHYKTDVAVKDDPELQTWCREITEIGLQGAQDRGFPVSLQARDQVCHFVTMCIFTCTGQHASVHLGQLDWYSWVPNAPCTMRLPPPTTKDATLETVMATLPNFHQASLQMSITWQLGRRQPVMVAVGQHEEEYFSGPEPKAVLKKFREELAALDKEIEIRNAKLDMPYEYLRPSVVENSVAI
Outline: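 Readout: Fe(III)-xylenol orange absorbance, 573-to-405 nm ratio as reaction progress. Enzyme 40 nM purified human 15hLO-1, substrate 50 uM arachidonic acid, 6 min RT after 15 min compound preincubation; Hepes pH 7.5 buffer with Triton X-100.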
Potency is the fitted concentration of half-maximal effect; tags give direction and shape of the fitted curve.

| Compound | Potency |
| --- | --- |
| COc1ccc(C(=O)CSc2nn3c(=O)c(C(C)(C)C)nnc3s2)cc1 | inconclusive [inhibitor, partial curve] |
| CC1=C(C(=O)OC2CCCCCCC2)C(c2ccc(O)cc2)NC(=O)N1 (centres undefined) | inconclusive [inhibitor, single point] |
| OCc1cc([C@@H](O)CNCCCCCCOCCCCc2ccccc2)ccc1O | inconclusive [inhibitor, single point] |
| COC(=O)c1ccc(CSc2nnc3n(Cc4ccccc4OC)c(=O)c4ccccc4n23)o1 | inconclusive [inhibitor, single point] |
| CC1=CCc2c(cc3oc(C)cc(=O)c3c2O)OC1 | active: 20 µM |
| CCN1C(=O)[C@@H]2[C@H]3C(=CC[C@@H]2C1=O)C1(OCCCO1)[C@H]1O[C@@H]1[C@H]3O | inconclusive [inhibitor, single point] |
| CS(=O)(=O)N(CCc1ccccc1)CC(=O)NCc1ccco1 | inconclusive [inhibitor, single point] |
| CCOC(=O)CSc1nc(-c2ccc(OC)cc2)ns1 | inconclusive [inhibitor, single point] |
| c1cncc(CNc2ccnc(-c3cccnc3)n2)c1 | inconclusive [inhibitor, single point] |
| CN(C)c1ccc(S(=O)(=O)c2ccc(Cl)cc2)cc1 | inconclusive [inhibitor, full curve, poor fit] |
| CC(=O)c1cc(-c2ccccc2)n(CC(=O)N2CCC(N3CCCCC3)CC2)c1C | inactive |
| N#CC1=C2SCN(Cc3ccco3)CN2C(=O)CC1c1c(F)cccc1Cl (centres undefined) | inconclusive [inhibitor, partial curve] |
| O=C(CSc1nc2ccccc2[nH]1)c1ccc2c(c1)OCO2 | inconclusive [inhibitor, single point] |
| Cc1ccc(NC(=O)N2CCC(NC(=O)c3ccccc3C)CC2)cc1 | inconclusive [inhibitor, partial curve] |
| O=C(Nc1nnc(COc2ccc(Cl)cc2)s1)C1CCCO1 (centres undefined) | active: 7.94 µM |
| COc1cccc(Cn2c(=O)cnc3cnc(OC)nc32)c1 | inconclusive [inhibitor, single point] |
| Nc1nc(Nc2ccccc2)nc2ccccc12 | inconclusive [inhibitor, single point] |
| O=C(O)c1cc(-c2ccc3c(c2)OCO3)nc2ccccc12 | inactive |
| Cn1c(N)c(C(=O)NCc2ccccc2)sc1=S | active: 12.6 µM |
| CCCCn1nc(NC(=O)c2cccs2)c2cc3cc(OC)ccc3nc21 | inconclusive [inhibitor, partial curve] |
| O=C(Nc1ccc(N2CCN(C(=O)c3ccccc3)CC2)c(Cl)c1)c1ccco1 | inactive |
| CCCCNN | inconclusive [inhibitor, single point] |
| Cc1ccc2[nH]c(=O)c(CN(Cc3ccco3)S(=O)(=O)c3c(C)ccc4nsnc34)cc2c1 | inconclusive [inhibitor, partial curve] |
| CCc1ccccc1N1CSC2=C(C#N)C(c3ccccc3F)CC(=O)N2C1 (centres undefined) | active: 3.16 µM |
| O=C1CN(c2ccc(Br)cc2)C(=O)N1CC(=O)N1CCCc2ccccc21 | inconclusive [inhibitor, partial curve] |

| Compound | Potency |
| --- | --- |
| CCCCC/C=C\C/C=C\CCCCCCCC(=O)O | active: 0.158 µM |
| O=c1[nH]cnc2ccccc12 | inconclusive [inhibitor, single point] |
| Cc1cc(=O)cc2oc3cc(N)c(-c4c(C)cc(O)cc4O)c(C)c3nc1-2 | inconclusive [inhibitor, partial curve, poor fit] |
| Cc1[nH]c2ccccc2c1C(=O)CN1CCC(C(N)=O)(N2CCCCC2)CC1 | inconclusive [inhibitor, single point] |
| FC(F)(F)c1ccccc1-c1nccc(NCc2ccccc2)n1 | inactive |
| CCOc1cccc(C=Nc2cc(C)cc(C)c2O)c1O | active: 10 µM |
| Nc1nonc1/C(=N/O)N1CCN(CCO)CC1 | inconclusive [inhibitor, full curve] |
| CC(=O)NCCNc1ncncc1-c1ccccc1C | active: 15.8 µM |
| COc1ccc(C2C3=C(N=C4SCC(=O)N42)c2ccccc2CC3)cc1OC (centres undefined) | inconclusive [inhibitor, single point] |
| Cc1ccc(-c2ccc(CCC(=O)O)n2CC(=O)O)cc1 | inconclusive [inhibitor, partial curve] |
| O=C(Cn1cnc2c(cnn2-c2ccc(F)cc2)c1=O)N1CCCc2ccccc21 | inconclusive [inhibitor, single point] |
| Cc1ccc(-c2csc3n[nH]c(=S)n23)cc1 | inconclusive [inhibitor, partial curve] |
| CCCOc1ccc2oc(=O)c3c(c2c1)CCCN3C(=O)CN1CCCC(C(=O)OCC)C1 (centres undefined) | inactive |
| CCn1c(=O)c(C(=O)NCCNCCO)c(O)c2ccccc21 | inconclusive [inhibitor, single point] |
| Cc1nc(NC2CCCCC2)c2nc(-c3ccccc3)n(CCN3CCCCC3)c2n1 | inconclusive [inhibitor, single point] |
| CCc1ccc(CNc2ccc(N3CCN(C(C)=O)CC3)cc2)cc1 | active: 15.8 µM |
| CCCOc1nc2c(c(=O)n(C)c(=O)n2C)n1Cc1cccc2ccccc12 | inactive |
| CCN1CC=C2C(C#N)=C(N)C(C#N)(C#N)C(c3cc(Cl)ccc3Cl)C2C1 (centres undefined) | inconclusive [inhibitor, full curve] |
| Cc1ccc(NS(=O)(=O)c2ccc(NC(=O)c3ccc(Br)o3)cc2)c(C)c1 | active: 15.8 µM |
| CCC(=O)Oc1ccc(C/C(=N\O)c2ccc(O)cc2O)o1 | inconclusive [inhibitor, partial curve] |
| Cn1c(SCC(=O)c2ccccc2)nnc1C1CC1 | inconclusive [inhibitor, single point] |
| NC(N)=NC(N)=Nc1ccccc1 | inconclusive [inhibitor, single point] |
| C=CCC(Nc1ccco1)c1ccccc1 (centres undefined) | inconclusive [inhibitor, single point] |
| CCOC(=O)[C@H](CCc1ccccc1)N[C@@H](C)C(=O)N1[C@H](C(=O)O)C[C@H]2CCC[C@@H]21 | inactive |
| CCSc1ccccc1C(=O)NCc1ccc(S(N)(=O)=O)cc1 | inconclusive [inhibitor, partial curve] |

| Compound | Potency |
| --- | --- |
| O=C(CSc1ncn(-c2ccccc2)n1)N1CCN(c2ccccc2)CC1 | inconclusive [inhibitor, single point] |
| Cc1c(O)c(Br)c(C)c(O)c1Br (tested in a mixture with another compound) | inconclusive [inhibitor, full curve] |
| COCCSc1nnc(NC(=O)CSCc2ccccc2)s1 | inconclusive [inhibitor, single point] |
| O=c1cnc2cnc(N3CCOCC3)nc2n1CCc1ccccc1 | inactive |
| COc1ccc(NC(=O)CCN2CCCCC2)cc1 | inconclusive [inhibitor, full curve, poor fit] |
| CCC(=O)Oc1cccc(C(=O)Nc2ccc(-c3nnc(-c4ccco4)o3)cc2)c1 | inconclusive [inhibitor, single point] |
| Cc1onc(-c2c(Cl)cccc2Cl)c1C(=O)Nc1ccc2c(c1)OCO2 | inactive |
| CCOC(=O)N1CCN(Cc2c(F)cccc2Cl)CC1 | inconclusive [inhibitor, partial curve] |
| COC(=O)c1[nH]c2cc(OC)ccc2c1NC(=O)CCN1CCN(c2cccc(C)c2C)CC1 | inconclusive [inhibitor, partial curve] |
| O=C(Cc1cccs1)NCCn1ccc2ccccc21 | inconclusive [inhibitor, partial curve] |
| CCOc1ccc(CNc2ccc(N3CCCC3)cc2)cc1 | active: 3.16 µM |
| COC(=O)c1cc(NCc2ccccc2F)ccc1N1CCOCC1 | inconclusive [inhibitor, single point] |
| COc1ccc(Nc2nc(N)nc(C(F)(F)F)n2)c(OC)c1 | inactive |
| COc1ccccc1-c1nccc(NCc2cccs2)n1 | active: 10 µM |
| O=C1C(Cl)=C(N2CCOCC2)C(=O)N1c1cccc(Cl)c1 | active: 3.98 µM |
| O=C1CC(Nc2ccccc2)C(=O)N1c1ccc(N2CCOCC2)cc1 (centres undefined) | inactive |
| CCN(CC)C(=O)c1sc2nc(-c3ccncc3)[nH]c(=O)c2c1C | inactive |
| O=C(c1cnccn1)N1CCC[C@@]2(CCN(C(c3ccccc3)c3ccccc3)C2)C1 | inactive |
| N#Cc1c(N)oc(-c2cccs2)c1-c1cccs1 | inconclusive [inhibitor, single point] |
| COc1ccc(Br)cc1C1NC(=O)c2c(sc3c2CCN(C)C3)N1 (centres undefined) | inconclusive [inhibitor, partial curve] |
| CCOC(=O)c1sc(NC(=O)c2ccc(Br)o2)cc1C | inconclusive [inhibitor, partial curve] |
| CCOC(=O)c1cnn(-c2nc(-c3ccccc3)nc3c2COC(C)(C)C3)c1N | inactive |
| COc1cc(CNc2ccccc2SC)ccc1O | inconclusive [inhibitor, single point] |
| COc1cccc(Cn2c(=O)c(-c3cccc(C#N)c3)nc3cnc(N4CCN(C)CC4)nc32)c1 | inactive |
